Some of the results follow.
Experiments:
Experiment in all cases: glycan array binding signal (z-score within array); higher = stronger binding
Settings in all cases: glycan notation: IUPAC condensed, linker removed
[1] = biological target: Fuc(a1-2)[Gal(a1-3)]Gal(b1-4)GlcNAc(b1-2)Man(a1-3)[Fuc(a1-2)[Gal(a1-3)]Gal(b1-4)GlcNAc(b1-2)Man(a1-6)]Man(b1-4)GlcNAc(b1-4)GlcNAc
Outline: (§1)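 The binding signal is a Z-score computed within each array and averaged over linkers. Arrays of the same protein sequence at different concentrations or buffers were also averaged together. Data originate from 3228 arrays in the Consortium for Functional Glycomics database, kept only where the protein sequence was available.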

[2] = biological target: Fuc(a1-2)[Gal(a1-3)]Gal(b1-4)GlcNAc(b1-2)Man(a1-3)[Fuc(a1-2)[Gal(a1-3)]Gal(b1-4)GlcNAc(b1-2)Man(a1-6)]Man(b1-4)GlcNAc(b1-4)[Fuc(a1-6)]GlcNAc
Outline: as §1

[3] = biological target: Fuc(a1-2)[Gal(a1-3)]Gal(b1-4)GlcNAc(b1-3)GalNAc
Outline: as §1

[4] = biological target: Fuc(a1-2)[Gal(a1-3)]Gal(b1-4)GlcNAc(b1-3)[Fuc(a1-2)[Gal(a1-3)]Gal(b1-4)GlcNAc(b1-6)]GalNAc
Outline: as §1

[5] = biological target: Fuc(a1-2)[Gal(a1-3)]Gal(b1-4)GlcNAc(b1-6)GalNAc
Outline: as §1

[6] = biological target: Fuc(a1-2)[Gal(a1-3)]Gal(b1-4)[Fuc(a1-3)]Glc
Outline: as §1

[7] = biological target: Fuc(a1-2)[Gal(a1-3)]Gal(b1-4)[Fuc(a1-3)]GlcNAc
Outline: as §1

[8] = biological target: Fuc(a1-2)[Gal(a1-3)]Gal(b1-4)[Fuc(a1-3)]GlcNAc(b1-3)GalNAc
Outline: as §1

[9] = biological target: Fuc(a1-2)[Gal(a1-4)]Gal(b1-4)GlcNAc
Outline: as §1

[10] = biological target: Fuc(a1-2)[GalNAc(a1-3)]Gal
Outline: as §1

[11] = biological target: Fuc(a1-2)[GalNAc(a1-3)]Gal(b1-3)GalNAc(a1-3)[Fuc(a1-2)]Gal(b1-4)GlcNAc
Outline: as §1

[12] = biological target: Fuc(a1-2)[GalNAc(a1-3)]Gal(b1-3)GalNAc(b1-3)Gal(a1-4)Gal(b1-4)Glc
Outline: as §1

[13] = biological target: Fuc(a1-2)[GalNAc(a1-3)]Gal(b1-3)GlcNAc
Outline: as §1

[14] = biological target: Fuc(a1-2)[GalNAc(a1-3)]Gal(b1-3)GlcNAc(b1-2)Man(a1-3)[Fuc(a1-2)[GalNAc(a1-3)]Gal(b1-3)GlcNAc(b1-2)Man(a1-6)]Man(b1-4)GlcNAc(b1-4)GlcNAc
Outline: as §1

[15] = biological target: Fuc(a1-2)[GalNAc(a1-3)]Gal(b1-3)GlcNAc(b1-2)Man(a1-3)[Fuc(a1-2)[GalNAc(a1-3)]Gal(b1-3)GlcNAc(b1-2)Man(a1-6)]Man(b1-4)GlcNAc(b1-4)[Fuc(a1-6)]GlcNAc
Outline: as §1

[16] = biological target: Fuc(a1-2)[GalNAc(a1-3)]Gal(b1-3)GlcNAc(b1-3)GalNAc
Outline: as §1

[17] = biological target: Fuc(a1-2)[GalNAc(a1-3)]Gal(b1-3)GlcNAc(b1-6)GalNAc
Outline: as §1

[18] = biological target: Fuc(a1-2)[GalNAc(a1-3)]Gal(b1-4)Glc
Outline: as §1

[19] = biological target: Fuc(a1-2)[GalNAc(a1-3)]Gal(b1-4)GlcNAc
Outline: as §1

[20] = biological target: Fuc(a1-2)[GalNAc(a1-3)]Gal(b1-4)GlcNAc(b1-2)Man
Outline: as §1

[21] = biological target: Fuc(a1-2)[GalNAc(a1-3)]Gal(b1-4)GlcNAc(b1-2)Man(a1-3)[Fuc(a1-2)[GalNAc(a1-3)]Gal(b1-4)GlcNAc(b1-2)Man(a1-6)]Man(b1-4)GlcNAc(b1-4)GlcNAc
Outline: as §1

[22] = biological target: Fuc(a1-2)[GalNAc(a1-3)]Gal(b1-4)GlcNAc(b1-2)Man(a1-3)[Fuc(a1-2)[GalNAc(a1-3)]Gal(b1-4)GlcNAc(b1-2)Man(a1-6)]Man(b1-4)GlcNAc(b1-4)[Fuc(a1-6)]GlcNAc
Outline: as §1

[23] = biological target: Fuc(a1-2)[GalNAc(a1-3)]Gal(b1-4)GlcNAc(b1-3)Gal(b1-4)GlcNAc
Outline: as §1

[24] = biological target: Fuc(a1-2)[GalNAc(a1-3)]Gal(b1-4)GlcNAc(b1-3)Gal(b1-4)GlcNAc(b1-3)Gal(b1-4)GlcNAc
Outline: as §1

[25] = biological target: Fuc(a1-2)[GalNAc(a1-3)]Gal(b1-4)GlcNAc(b1-3)GalNAc
Outline: as §1

[26] = biological target: Fuc(a1-2)[GalNAc(a1-3)]Gal(b1-4)GlcNAc(b1-3)[Fuc(a1-2)[GalNAc(a1-3)]Gal(b1-4)GlcNAc(b1-6)]GalNAc
Outline: as §1

[27] = biological target: Fuc(a1-2)[GalNAc(a1-3)]Gal(b1-4)GlcNAc(b1-6)GalNAc
Outline: as §1

[28] = biological target: Fuc(a1-2)[GalNAc(a1-3)]Gal(b1-4)[Fuc(a1-3)]GlcNAc
Outline: as §1

[29] = biological target: Fuc(a1-2)[GalNAc(a1-3)]Gal(b1-4)[Fuc(a1-3)]GlcNAc(b1-3)GalNAc
Outline: as §1

[30] = biological target: Fuc(a1-2)[GalNAc(a1-4)]Gal(b1-4)GlcNAc
Outline: as §1

B1: CFEM-PPm (Pichia pastoris), F2QPV1 (protein)
chain: AVATPPACLLACAAEVVKESSDCDALNNIQCICENEGSAIHACLESTCPDGLSSTALQSFEDVCE
**Q.** What does the source list for B1?
**A.** glycan array binding signal (z-score) [1]: -0.317; glycan array binding signal (z-score) [2]: -0.23; glycan array binding signal (z-score) [3]: -0.477; glycan array binding signal (z-score) [4]: 0.009; glycan array binding signal (z-score) [5]: -0.321; glycan array binding signal (z-score) [6]: -0.44; glycan array binding signal (z-score) [7]: -0.092; glycan array binding signal (z-score) [8]: 0.057; glycan array binding signal (z-score) [9]: 0.284; glycan array binding signal (z-score) [10]: -0.252; glycan array binding signal (z-score) [11]: -0.363; glycan array binding signal (z-score) [12]: -0.397; glycan array binding signal (z-score) [13]: -0.073; glycan array binding signal (z-score) [14]: -0.371; glycan array binding signal (z-score) [15]: 0.003; glycan array binding signal (z-score) [16]: 0.656; glycan array binding signal (z-score) [17]: -0.374; glycan array binding signal (z-score) [18]: -0.138; glycan array binding signal (z-score) [19]: -0.274; glycan array binding signal (z-score) [20]: -0.313; glycan array binding signal (z-score) [21]: -0.138; glycan array binding signal (z-score) [22]: -0.267; glycan array binding signal (z-score) [23]: -0.38; glycan array binding signal (z-score) [24]: -0.265; glycan array binding signal (z-score) [25]: -0.294; glycan array binding signal (z-score) [26]: -0.055; glycan array binding signal (z-score) [27]: -0.175; glycan array binding signal (z-score) [28]: 0.032; glycan array binding signal (z-score) [29]: 3.4; glycan array binding signal (z-score) [30]: 0.238

— the supplement of paper PMC8728848
